In PubChem BioAssay AID1259407 (Chemical Carcinogenesis Research Information System (CCRIS), 2018):
Entries after “also recorded” stand apart in the source; their conditions may differ. For part of its entries the source gives two or more results. The list is limited to them. No rule for the calls is given here. The source may hold further records. Results that share an entry differ, and nothing given here explains why; they may come from other doses, times, organisms or constructs than stated. Brackets tell where a record comes from. The letters are not those of the source and start again with each entry. Marks such as (2×) count equal records among those shown.

Tested on: CCRIS mutagenicity, Ames/micronucleus/aberration tests
Assay: CCRIS mutagenicity studies
[1] = End Point: IN VITRO CHROMOSOMAL ABERRATIONS, Test System: CHL CELLS, Metabolic Activation: NONE
[2] = Test System: AMES SALMONELLA TYPHIMURIUM, Strain/Indicator: TA98, Metabolic Activation: NONE, Method: STANDARD PLATE
[3] = Test System: AMES SALMONELLA TYPHIMURIUM, Strain/Indicator: TA100, Metabolic Activation: RAT, LIVER, S-9, AROCLOR 1254, Method: STANDARD PLATE
[4] = Test System: MOUSE LYMPHOMA, Strain/Indicator: L5178Y (TK+/TK-), Metabolic Activation: NONE, Method: SUSPENSION/PLATE
[5] = Test System: AMES SALMONELLA TYPHIMURIUM, Strain/Indicator: TA100, Metabolic Activation: NONE, Method: PREINCUBATION
[6] = Test System: E.COLI, Strain/Indicator: WP2UVRA, Metabolic Activation: RAT LIVER S-9, PHENOBARBITAL AND BETA-NAPHTHOFLAVONE, Method: PREINCUBATION
[7] = Test System: AMES SALMONELLA TYPHIMURIUM, Strain/Indicator: TA98, Metabolic Activation: NONE, Method: PREINCUBATION
[8] = End Point: In vitro chromosomal aberrations, Test System: Chinese hamster lung (CHL/IU) cells, Metabolic Activation: None
[9] = Test System: AMES SALMONELLA TYPHIMURIUM, Strain/Indicator: TA100, Metabolic Activation: HAMSTER, LIVER, S-9, Method: STANDARD PLATE
[10] = Test System: AMES SALMONELLA TYPHIMURIUM, Strain/Indicator: TA100, Metabolic Activation: MOUSE, LIVER, S-9, AROCLOR 1254, Method: STANDARD PLATE
[11] = Test System: AMES SALMONELLA TYPHIMURIUM, Strain/Indicator: TA100, Metabolic Activation: MOUSE, LIVER, S-9, Method: STANDARD PLATE
[12] = Test System: AMES SALMONELLA TYPHIMURIUM, Strain/Indicator: TA100, Metabolic Activation: RAT, LIVER, S-9, Method: STANDARD PLATE
[13] = Test System: AMES SALMONELLA TYPHIMURIUM, Strain/Indicator: TA1537, Metabolic Activation: MOUSE, LIVER, S-9, Method: STANDARD PLATE

`ONc1ncnc2nc[nH]c12` was tested, and the mutagenic call (Test System: AMES SALMONELLA TYPHIMURIUM, Strain/Indicator: TA100, Metabolic Activation: NONE, Method: STANDARD PLATE) was “inactive; negative [study A] and active; positive [study B] and active; positive [study C]”.

`CC(Br)C(=O)O` (configuration not stated) was tested, and the mutagenic call [1] was “active; positive (structural changes) (2×); also recorded: inactive; negative; authors report equivocal structural changes at highest dose”.

`CN1CCC[C@H]1c1cccnc1` was tested, and the mutagenic call (End Point: In vivo micronucleus, Test System: Bone marrow polychromatic erythrocytes, Species: Mouse, Strain/Sex: Swiss/Male, Route: Oral) was “inactive; negative and active; positive”.

With `Nc1cccc(N)c1` the mutagenic call (End Point: IN VITRO CHROMOSOMAL ABERRATIONS, Test System: CHINESE HAMSTER LUNG CELLS (CHL), Metabolic Activation: NONE) was “active; positive (structural changes); also recorded: inactive; negative; authors describe the results at the highest dose as equivocal”, the mutagenic call [2] was “inactive; negative [study A] and inactive; negative [study B] and active; positive [study C]” and the mutagenic call [3] was “inactive; negative [study A] and active; positive [study B]”.

`C=CC(=O)OC` was tested, and the mutagenic call (Test System: CHINESE HAMSTER OVARY, Strain/Indicator: CHO-K1-BH4 (HGPRT), Metabolic Activation: NONE, Method: MONOLAYER) was “active; positive and inactive; negative” and the mutagenic call [4] was “active; positive [study A]; also recorded: active; positive. reevaluation of results: positive [study B]”.

`ClCc1ccccc1` was tested, and the mutagenic call [1] was “active; positive (structural changes); also recorded: inactive; negative; authors report equivocal results for ploidy changes at 0.05 mg/ml; also recorded: inactive; negative; authors report equivocal results for structural changes at 0.05 mg/ml”, the mutagenic call [5] was “inactive; negative [study A] and active; positive [study A] and inactive; negative [study B]” and the mutagenic call (Test System: AMES SALMONELLA TYPHIMURIUM, Strain/Indicator: TA100, Metabolic Activation: RAT LIVER S-9, PHENOBARBITAL AND BETA-NAPHTHOFLAVONE, Method: PREINCUBATION) was “inactive; negative and active; positive”. For the same molecule, the mutagenic call (Test System: E.COLI, Strain/Indicator: WP2UVRA, Metabolic Activation: NONE, Method: PREINCUBATION) was “inactive; negative and active; positive” and the mutagenic call [6] was “inactive; negative and active; positive”.

In the case of `ClCCCl`, the mutagenic call (Test System: Ames Salmonella typhimurium, Strain/Indicator: TA1535, Metabolic Activation: None, Method: Preincubation) is reported as “inactive; negative and active; positive (2×)”.

With `C/C=C/C=C/C=O` the mutagenic call [5] was “active; positive [sample A, study A] and inactive; negative [sample B, study B]” and the mutagenic call (Test System: AMES SALMONELLA TYPHIMURIUM, Strain/Indicator: TA100, Metabolic Activation: RAT LIVER S-9, AROCLOR 1254 (30%), Method: PREINCUBATION) was “inactive; negative and active; positive”.

`O=[N+]([O-])c1cc2c3ccccc3ccc2c2ccccc12` was tested, and the mutagenic call [7] was “active; positive [study A] and inactive; negative [study B] and active; positive [study C]”.

In the case of `C=CC(=O)OCCO`, the mutagenic call [8] is reported as “active; positive (structural changes). toxicity at 0.014 mg/ml; also recorded: active; positive (structural changes and ploidy). no dose-response relationship for ploi; also recorded: active; positive (structural changes and ploidy). toxicity at 0.014 mg/ml” and the mutagenic call (Test System: E. coli, Strain/Indicator: WP2uvrA/pKM101, Metabolic Activation: Rat, Liver, S9, Sodium phenobarbital and 5,6-benzoflavone (10%), Method: Preincubation) is reported as “active; positive; also recorded: active; positive (results of two experimental tests)”.

`CCCCC(CC)COC(=O)c1ccc(N(C)N=O)cc1` (configuration not stated) was tested, and the mutagenic call [4] was “inactive; negative (2×) [study A]; also recorded: inactive; negative. reevaluation of results: negative [study B]”.

With `ClCc1ccc(Cl)cc1` the mutagenic call [8] was “active; positive (structural changes and ploidy). toxicity at 0.040 and 0.048 mg/ml; also recorded: active; positive (structural changes and ploidy). toxicity at 0.030 mg/ml. weak response; also recorded: active; positive (structural changes)”.

With `COc1cccc2c1cc([N+](=O)[O-])c1c(C(=O)O)cc3c(c12)OCO3` the mutagenic call (End Point: IN VITRO MICRONUCLEUS, Test System: CHO (WBL) CELLS, Metabolic Activation: NONE) was “active; positive and inactive; negative” and the mutagenic call (End Point: IN VITRO MICRONUCLEUS, Test System: CHO CELLS, Metabolic Activation: NONE) was “inactive; negative and active; positive”.

In the case of `COc1ccc(N)cc1`, the mutagenic call [9] is reported as “active; positive (2×) and inactive; negative”, the mutagenic call [10] is reported as “active; positive and inactive; negative” and the mutagenic call [11] is reported as “active; positive and inactive; negative”. The mutagenic call [3] was “active; positive and inactive; negative (2×)”, the mutagenic call [12] was “active; positive and inactive; negative” and the mutagenic call [13] was “inactive; negative (2×) and active; positive”. For the same molecule, the mutagenic call (Test System: E.COLI, Strain/Indicator: WP2UVRA/PKM101, Metabolic Activation: NONE, Method: PREINCUBATION) was “inactive; negative and active; positive” and the mutagenic call [6] was “inactive; negative and active; positive”.

In the case of `[O]=[Cr](=[O])([OH])[O][Cr](=[O])(=[O])[OH]`, the mutagenic call (End Point: In vitro micronucleus, Test System: Human lymphocytes, Metabolic Activation: None) is reported as “active; positive. ameliorated by addition of curcumin; also recorded: inactive; negative” and the mutagenic call (Test System: AMES SALMONELLA TYPHIMURIUM, Strain/Indicator: TA102, Metabolic Activation: NONE, Method: PREINCUBATION) is reported as “inactive; negative and active; positive”.

In the case of `Nc1ccc2ccccc2c1`, the mutagenic call (Test System: AMES SALMONELLA TYPHIMURIUM, Strain/Indicator: TA98, Metabolic Activation: RAT LIVER S-9, AROCLOR, Method: STANDARD PLATE) is reported as “inactive; negative and active; positive”.

`N#CC(Br)Br` was tested, and the mutagenic call (Test System: Ames Salmonella typhimurium, Strain/Indicator: TA100, Metabolic Activation: None, Method: Preincubation) was “active; positive (weak response; did not achieve doubling effect); also recorded: inactive; negative (2×)”, the mutagenic call (Test System: Ames Salmonella typhimurium, Strain/Indicator: TA1535, Metabolic Activation: Hamster, Liver, S-9, Aroclor 1254 (10%), Method: Preincubation) was “active; positive and inactive; negative” and the mutagenic call (Test System: Ames Salmonella typhimurium, Strain/Indicator: TA1535, Metabolic Activation: Rat, Liver, S-9, Aroclor 1254 (10%), Method: Preincubation) was “active; positive [study A] and inactive; negative [study A] and active; positive (weak response) [study B]”. For the same molecule, the mutagenic call (Test System: Ames Salmonella typhimurium, Strain/Indicator: TA1537, Metabolic Activation: Hamster, Liver, S-9, Aroclor 1254 (10%), Method: Preincubation) was “active; positive (weak response) and inactive; negative (2×)”.

With `Nc1nc(NO)c2[nH]cnc2n1` the mutagenic call [7] was “active; positive [study A] and inactive; negative [study B]” and the mutagenic call (Test System: AMES SALMONELLA TYPHIMURIUM, Strain/Indicator: TA98, Metabolic Activation: RAT, LIVER, S-9, KANECHLOR 500, Method: PREINCUBATION) was “active; positive [study A] and inactive; negative [study B]”.

In the case of `Nc1ccc(NC(=O)c2ccc(N)cc2)cc1`, the mutagenic call (Test System: AMES SALMONELLA TYPHIMURIUM, Strain/Indicator: TA1537, Metabolic Activation: NONE, Method: PREINCUBATION) is reported as “inactive; negative and active; positive”.

In the case of `Nc1ccc(Cl)c(N)c1`, the mutagenic call [1] is reported as “active; positive (structural changes) and inactive; negative”, the mutagenic call (End Point: IN VITRO CHROMOSOMAL ABERRATIONS, Test System: CHO-LB CELLS, Metabolic Activation: NONE) is reported as “inactive; negative and active; positive” and the mutagenic call [2] is reported as “inactive; negative and active; positive (2×)”. The mutagenic call [9] was “active; positive and inactive; negative (2×)”, the mutagenic call [10] was “inactive; negative and active; positive (2×)” and the mutagenic call [11] was “inactive; negative and active; positive (2×)”. The mutagenic call [12] was “inactive; negative and active; positive”, the mutagenic call (Test System: AMES SALMONELLA TYPHIMURIUM, Strain/Indicator: TA1535, Metabolic Activation: RAT, LIVER, S-9, AROCLOR 1254, Method: STANDARD PLATE) was “inactive; negative (2×) and active; positive” and the mutagenic call [13] was “active; positive and inactive; negative”. The mutagenic call (Test System: AMES SALMONELLA TYPHIMURIUM, Strain/Indicator: TA1538, Metabolic Activation: NONE, Method: STANDARD PLATE) was “active; positive (2×) and inactive; negative”.

For `OCC(O)CCl` (configuration not stated), the mutagenic call [7] was “inactive; negative [study A] and active; positive [study B]”.
